In PubChem BioAssay AID1508624 (National Center for Advancing Translational Sciences (NCATS), 2021):
Out of some 48,000 compounds screened, about 120 (0.25%) were called active. Inconclusive results (about 4%) are left out. The call rests on the fitted dose curve; in most records, active means well fitted activation curve with a large enough effect; inconclusive means small, poorly fitted or top-dose-only effect, or another doubt; inactive means no such curve, though single readings can be large or run the other way. The list shows a part of the results.

Test: Primary qHTS for Identification of Small Molecule Activators of Huntingtin-Antisense Promoter Activity; further: nearly all actives have a fitted effect of over 55% in size
Settings: HEK293 HTT-AS promoter firefly luciferase reporter, 24 h; series mostly up to 57.5 µM; activity change, positive = activation: at the top concentration
Procedure, shortened: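 Firefly luciferase readout (Dual-Glo, 10 min RT) after 24 h, 37 °C compound exposure (final up to 57.5 uM) of HEK293 reporter cells cultured 24 h beforehand; PTC124 at 50 uM final as control inhibitor; activity scaled vehicle 0%, zero RLU -100%.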
Potency means the concentration at half of the fitted maximal effect.

Compound | activity change, positive = activation | Potency
CCN(C(=O)CSc1nc2ccccc2n1Cc1ccc(F)cc1Cl)c1ccccc1 | inactive: -21.1% | –
CCOC(=O)C(Cc1c[nH]c2ccccc12)NC(=O)COc1ccc(CC)cc1 (centres undefined) | inactive: -18.5% | –
Cc1cc(NC(=O)CN2CCC(C)CC2)nc2c1c(=O)oc1ccccc12 | inactive: 2.01% | –
Cc1ccc(Cl)cc1NC(=O)CN1C(=O)CCc2ccccc21 | inactive: -15.2% | –
CCCCNc1oc(-c2ccc(COc3ccc(OC)cc3)o2)nc1C#N | inactive: -27.6% | –
COc1ccc(C)cc1N(C)C(=O)CCc1nc(-c2ccccc2F)no1 | inactive: -19.7% | –
CCOC(=O)c1c(C)[nH]c(C)c1S(=O)(=O)N1CCC(C(=O)NCc2ccccc2Cl)CC1 | inactive: -22.8% | –
CN(C)c1ccc(Nc2ncnc3sc4c(c23)CCCC4)cc1 | inactive: -78.6% | –
COc1ccc(CC(=O)NCc2nc3cccnc3n2Cc2ccccc2)cc1 | inactive: -9.27% | –
COC(=O)c1ccccc1NC(=O)CCCn1c(=O)c2cccn2c2cccnc21 | inactive: -11.2% | –
Cc1noc(/C=C/c2ccccc2F)c1S(=O)(=O)N1CCC(C(=O)N2CCOc3ccccc32)CC1 | inactive: 22.7% | –
COc1ccc(C)cc1NC(=O)Nc1cccc(-c2noc(C)n2)c1 | inactive: -16.6% | –
CCc1ccc(NC(=O)Cn2c(=O)n(CCC(=O)NCCc3ccc(Cl)cc3)c(=O)c3ccccc32)cc1 | inactive: -8.8% | –
COc1ccccc1CCNC(=O)C(C)Sc1nc(-c2ccccc2)cc(C(F)(F)F)n1 (centres undefined) | inactive: -13.4% | –
COc1ccc(C(=O)Nc2nc(-c3nnn(-c4ccc(C(C)C)cc4)c3C)ns2)cc1 | inactive: -13.5% | –
O=C(Cn1ncn2c(cc3ccccc32)c1=O)NCc1ccc(F)cc1 | inactive: -12.7% | –
Cc1ccc(-c2cc(-c3ccccc3)c(C#N)c(SCC(O)CS(=O)(=O)Cc3ccccc3)n2)cc1 (centres undefined) | inactive: -9.87% | –
CCCOc1ccc(CNC(=O)c2[nH]c3cc(OC)ccc3c2Sc2ccccc2)cc1 | inactive: 9.04% | –
Cc1ccc(/C=C/C(=O)Nc2ccccc2C(N)=O)o1 | – | active: 3.98 µM
COc1cccc(CNC(=O)c2cc(Sc3cccc(Cl)c3)nc3ccccc23)c1 | inactive: -35.5% | –
COc1ccccc1NC(=O)COc1ccc(-c2nn(C)c(=O)c3ccccc23)cc1 | inactive: -34.2% | –
CC(=O)N1c2ccc(S(=O)(=O)Nc3ccc(Cl)cc3C)cc2CC1C (centres undefined) | inactive: -44.5% | –
COc1cc(OC)cc(-c2nc3n(n2)C(c2ccccc2)C(C(N)=O)=C(C)N3)c1 (centres undefined) | inactive: -7.36% | –
Cc1sc(-c2cc3c([nH]c2=O)CC(c2ccccc2)CC3=O)nc1-c1ccc(Cl)cc1 (centres undefined) | inactive: -40.6% | –

Compound | activity change, positive = activation | Potency
Cc1c(C(=O)N2CCOCC2)oc2c1-c1nn(CC(=O)NCc3cccc(Cl)c3)cc1CC2 | inactive: -29.5% | –
CCCCS(=O)(=O)c1oc(-c2ccc(F)cc2)nc1S(=O)(=O)c1ccc(C)cc1 | inactive: -91.5% | –
COc1ccc(-c2c(C)c3ccc(O)c(CN4CCN(CCO)CC4)c3oc2=O)cc1OC | inactive: -12.3% | –
Cc1ccc(CCNC(=O)c2c(C)oc3ncn(CC(C)C)c(=O)c23)cc1 | inactive: -22.6% | –
CC(C)(C)OC(=O)N1CCC(c2c(C(=O)NCCc3ccccc3)cnn2-c2ccc(F)cc2F)CC1 | inactive: -13.9% | –
CCOC(=O)c1c(NC(=O)COc2cccc(C)c2C)sc2c1CCC(CC)C2 (centres undefined) | inactive: 11% | –
Cn1c(=O)oc2cc(S(=O)(=O)N3CCC(C(=O)N4CCN(c5ccccc5F)CC4)CC3)ccc21 | inactive: -23.5% | –
O=C(Cn1cnc2ccccc2c1=O)NCCC(=O)Nc1ccc(F)cc1 | inactive: 16.8% [at 11.5 µM, percent change from vehicle, -100% = no light] | –
CC(C)COc1ccc(C(=O)Nc2cc(-c3ccccc3)no2)cc1 | inactive: 16.3% | –
COc1cccc(N2CCN(S(=O)(=O)c3cc(-c4cc(C)no4)ccc3C)CC2)c1 | inactive: 13.2% | –
CCCCN(CC)CCCNC(=O)Cn1ncc2c([nH]c3ccc(C)cc32)c1=O | inactive: -7.14% | –
O=c1c2cn[nH]c2nc(SCc2c(F)cccc2F)n1-c1ccc(Cl)cc1 | inactive: -4.41% | –
COc1ccc(N(CC(=O)N2CCN(c3ccc(F)cc3)CC2)S(=O)(=O)c2c(C)noc2C)cc1 | inactive: -18.3% | –
CCOc1cccc(C(=O)Nc2nc3c(s2)CC(C(C)(C)C)CC3)c1 (centres undefined) | inactive: -7.37% | –
CCCCN1C(=O)C(O)(CC(=O)c2ccc(C)cc2C)c2cc(Br)ccc21 (centres undefined) | inactive: -29.2% | –
O=C(NCc1ccco1)c1ccc2c(c1)N(Cc1ccc(F)cc1)C(=O)c1ccccc1S2(=O)=O | inactive: -32.6% | –
CC(=O)Nc1ccccc1-c1nc2ccccc2n(CC(=O)Nc2cccc(C(F)(F)F)c2)c1=O | inactive: -28.8% | –
COc1ccc(/C=C/C(=O)Nc2nc(-c3cccs3)ns2)cc1OC | inactive: -34.6% | –
Cc1ccc(CO)cc1Nc1ncnc2onc(-c3ccc(F)cc3)c12 | inactive: -21.9% | –
CCOc1cccc2cc(S(=O)(=O)c3ccccc3F)c(=O)oc12 | inactive: -66.4% | –
CCS(=O)(=O)N1CC(=O)N(c2ccc(Cl)cc2)C(C)(C(=O)NC2CCCCC2)C1 (centres undefined) | inactive: -4.08% | –
CC1=C(c2ccc(C(C)C)cc2)S(=O)(=O)N=C1N1CCC(C(=O)NCCc2ccco2)CC1 | inactive: -27.9% | –
COc1cccc(-c2nc(SCC(=O)NC3CCCC3)c(-c3ccc(C)cc3)[nH]2)c1 | inactive: -23.6% | –
Cc1ccc(CNC(=O)c2ccc3nc(SCc4ccc(F)cc4)[nH]c3c2)cc1 | inactive: -87.1% | –

Compound | activity change, positive = activation | Potency
CCN(CC)C(=O)CSc1nc(-c2ccc(C)cc2)nc2c1Cc1c(CO)cnc(C)c1O2 | inactive: -28.4% | –
CCc1cccc(NC(=O)C(Cc2ccccc2)n2cccc2)c1 (centres undefined) | inactive: -31% | –
CCOc1ccc(CNC(=O)c2ccc3c(c2)nc2n3CCOC2)cc1OC | inactive: -21.1% | –
COc1ccc(N2CC(NC(=O)c3ccc(S(=O)(=O)N4CCCCC4)cc3)CC2=O)cc1 (centres undefined) | inactive: -34.4% | –
CCc1ccc(NC(=O)CN(c2cc(C)cc(C)c2)S(=O)(=O)c2c(C)[nH]c(=O)[nH]c2=O)cc1 | inactive: -11.8% | –
CC1=C(C(=O)Nc2ccc(F)cc2F)C2(CCN(C(C)C)CC2)OC1=O | inactive: 1.22% | –
COc1ccc(C(=O)NCc2ccc(OCCN(C)C)cc2)cc1OC | inactive: -13.5% | –
COc1cccc(NC(=O)CC2Nc3cc(C)c(C)cc3NC2=O)c1 (centres undefined) | inactive: -0.881% | –
Cc1ccc(C)c(N2CCN(C(=O)CSCc3ccccc3Cl)CC2)c1 | inactive: -11.3% | –
Cc1cccc(NC(=O)CCS(=O)(=O)c2cc(Br)cc3c2N(C(=O)C2CC2)CC3)c1 | inactive: -13.2% | –
Cc1ccc(CNC(=O)CC2Oc3ccc(Cl)cc3NC2=O)cc1 (centres undefined) | inactive: -9.99% | –
CCOc1ccc(NS(=O)(=O)c2ccc3c4c(cccc24)C(=O)N3)cc1 | inactive: 8.71% [at 11.5 µM, percent change from vehicle, -100% = no light] | –
Cc1ccc(CN(Cc2ccco2)C(=O)COc2ccc(C)c(C)c2)cc1 | inactive: -2.96% | –
O=C(Nc1nnc(S(=O)(=O)N2CCCCC2)s1)c1ccccc1Br | inactive: -21.9% | –
Cc1ccc(NC(=O)c2ccc3c(O)c(S(=O)(=O)c4ccccc4)c(=O)[nH]c3c2)cc1Cl | inactive: -11.8% | –
Cc1ccc(-c2nnc(Nc3ccc(C(=O)N(C)C)cc3)c3ccccc23)cc1S(=O)(=O)N(C)C | inactive: -22.2% | –
CCN(C(=O)CN1C(=O)COc2ccc(S(=O)(=O)N3CCOCC3)cc21)c1ccc(OC)cc1 | inactive: -3.14% | –
CC(C)(C)CC(=O)NCC(c1ccc2c(c1)OCO2)N1CCOCC1 (centres undefined) | inactive: -11.4% | –
O=C(Nc1cccc(F)c1)c1ccc2c(c1)N(Cc1ccccc1)C(=O)c1ccccc1S2(=O)=O | inactive: -18.3% | –
O=C(COc1ccc(Cl)cc1)OCc1cc(=O)n2nc(C3CC3)sc2n1 | inactive: -6.49% | –
N[C@@H](C(=O)N[C@@H]1C(=O)N2C(C(=O)O)=C(Cl)CS[C@H]12)c1ccccc1 | inactive | –
COc1ccc(C(=O)NCC(c2ccc(N(C)C)cc2)N2CCc3ccccc32)cc1OC (centres undefined) | inactive: -16.7% | –
COC(=O)c1ccccc1NC(=O)C1CCN(C(=O)N2CC(C)Oc3ccccc32)CC1 (centres undefined) | inactive: -15.6% | –
COc1ccc(-c2nc3ccccc3s2)cc1NC(=O)c1ccc(F)cc1 | inactive: -3.64% | –

Compound | activity change, positive = activation | Potency
CN1[C@@H]2CC[C@H]1CC(NC(=O)n1c(=O)[nH]c3ccccc31)C2 (some centres undefined) | inactive: -3.73% | –
Cc1cccc(NC(c2ccccc2F)c2ccc3ccc(C)nc3c2O)n1 (centres undefined) | inactive: 10.4% | –
Cc1ccc(OCC(=O)Nc2ccccc2OCc2cc(=O)n3ccccc3n2)cc1C | inactive: -4.78% | –
CCCN1Cc2cccc(C(=O)Nc3cccc(C(=O)OCC)c3)c2C1=O | inactive: 6.6% | –
CCC1Oc2ccc(Cl)cc2N(CC(=O)NCCc2ccc(Cl)cc2)C1=O (centres undefined) | inactive: -23% | –
CCCCCCCCCCCCCCCC[n+]1ccccc1 | inactive: -58.1% | –
COCCNc1nc(NCc2cccc(Cl)c2)c2cnn(C)c2n1 | inactive: -33.1% | –
COc1ccc(/C=C/C(=O)Nc2ccc3nc(N4CCC(C)CC4)cc(C)c3c2)cc1 | inactive: -32.4% | –
CCc1cccc(C)c1NC(=O)Cn1nc(C)c2nn(-c3ccc(Cl)cc3)c(C)c2c1=O | inactive: -26.1% | –
CCN(c1ccccc1)S(=O)(=O)c1c(-c2ccc(C)cc2)csc1C(=O)OC | inactive: -33.9% | –
COc1ccccc1C(=O)Nc1ccc2oc(-c3cccc4c(Br)cccc34)nc2c1 | inactive: -12.9% | –
O=C(Cc1csc2nc(-c3ccc(F)cc3)cn12)NCc1ccccc1 | inactive: 22.1% | –
C=Cc1ccc(Cn2c(C)c(CNCc3ccccc3C)c(C(=O)O)c2C)cc1 | inactive: -25.7% | –
COc1ccccc1CNC(=O)CCn1c(=O)c2cccn2c2cccnc21 | inactive: -13.2% | –
NC1=NC(c2cccc(Cl)c2)n2c(nc3ccccc32)N1 (centres undefined) | inactive: -18.1% | –
CCOc1ccc2c(c1)c(=O)c(S(=O)(=O)c1ccc(F)cc1)cn2CC(=O)Nc1ccccc1C | inactive: -9.62% | –
CCOC(=O)c1cnn(-c2ccc(C(=O)Nc3ccc(C(C)=O)cc3)cc2)c1N | inactive: -6.79% | –
CCOC(=O)c1c(S(=O)(=O)N2CCCC(C(=O)NCc3cccc(C)c3)C2)c(C)n(C)c1C (centres undefined) | inactive: 0% | –
COc1cc2cc(CNc3ccccc3)c(=O)n(CC(=O)Nc3ccc(C)c(Cl)c3)c2cc1OC | inactive: -22.4% | –
COCCN(Cc1ccco1)C(=O)c1cc2c(=O)[nH]c3ccc(C)cc3c2s1 | inactive: -14.4% | –
O=C(COc1ccccc1)NCC(c1ccc(Cl)cc1)N1CCOCC1 (centres undefined) | inactive: -20.3% | –
Cc1ccc(-c2noc(-c3ccc(N4CCN(C)CC4)c([N+](=O)[O-])c3)n2)cc1 | inactive: -20.3% | –
